One experiment deals with T1, muCD73 (Mus musculus, UniProt Q61503).
T1 sequence (Q61503 29-551): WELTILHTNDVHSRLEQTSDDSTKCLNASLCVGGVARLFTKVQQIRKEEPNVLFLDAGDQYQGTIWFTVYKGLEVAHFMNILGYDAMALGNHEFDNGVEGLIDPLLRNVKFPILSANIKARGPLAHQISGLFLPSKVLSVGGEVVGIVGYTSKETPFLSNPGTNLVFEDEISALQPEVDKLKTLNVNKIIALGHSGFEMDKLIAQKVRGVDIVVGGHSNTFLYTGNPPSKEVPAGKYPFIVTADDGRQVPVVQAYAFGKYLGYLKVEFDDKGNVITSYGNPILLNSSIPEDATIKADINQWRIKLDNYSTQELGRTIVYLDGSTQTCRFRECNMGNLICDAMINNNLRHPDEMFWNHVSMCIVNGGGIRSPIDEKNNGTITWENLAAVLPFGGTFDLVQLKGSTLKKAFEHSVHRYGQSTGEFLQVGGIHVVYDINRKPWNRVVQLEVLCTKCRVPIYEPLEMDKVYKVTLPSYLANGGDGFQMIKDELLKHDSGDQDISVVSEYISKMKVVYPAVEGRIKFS
The experiment can be described thus: ELISA binding of Fab variants to murine CD73. The conditions noted are these: combinatorial Fab library clones, capture ELISA and direct ELISA. The source says: (§1) CD730010GL9 IgG1-TM was enhanced by screening Fab libraries comprising variant CDR sequences with single amino acid mutations. Each of the 61 positions in the six CDRs was individually randomized to 19 amino acids (all natural amino acids except Cysteine), generating a library with a theoretical diversity of 1159 unique clones (19 amino acids per position times 61 positions). Bacterial Fab fragments were produced from 4224 clones of the library and screened for binding to human and murine CD73 protein by capture ELISA (Assay 2). […] The Fab concentration in the bacterial supernatants was normalized and the binding of the normalized supernatants to human and murine CD73 protein was evaluated by direct ELISA (Assay 1). […]
(§2) 384-well ELISA plates were coated with about 1.5 ng/well recombinant CD73 protein, blocked with 1% BSA/0.1% Tween20/PBS and incubating with antibody samples for 90 minutes at room temperature. […] HRP activity was detected with tetra methyl benzidine (TMB) substrate and the reaction was stopped with 1 M HCl. Plates were read at 450 nm.
(§3) 384-well ELISA plates were coated with about 3 ng/well sheep-anti-human Fd antibody (for screening antibodies in Fab format), blocked with 1% BSA/0.1% Tween20/PBS and incubating with samples for 90 minutes at room temperature. […] HRP activity was detected with tetra methyl benzidine (TMB) substrate and the reaction was stopped with 1 M HCl. […]

The target in a further experiment is T2, huCD73 (Homo sapiens, UniProt P21589).
T2 sequence (P21589 27-549): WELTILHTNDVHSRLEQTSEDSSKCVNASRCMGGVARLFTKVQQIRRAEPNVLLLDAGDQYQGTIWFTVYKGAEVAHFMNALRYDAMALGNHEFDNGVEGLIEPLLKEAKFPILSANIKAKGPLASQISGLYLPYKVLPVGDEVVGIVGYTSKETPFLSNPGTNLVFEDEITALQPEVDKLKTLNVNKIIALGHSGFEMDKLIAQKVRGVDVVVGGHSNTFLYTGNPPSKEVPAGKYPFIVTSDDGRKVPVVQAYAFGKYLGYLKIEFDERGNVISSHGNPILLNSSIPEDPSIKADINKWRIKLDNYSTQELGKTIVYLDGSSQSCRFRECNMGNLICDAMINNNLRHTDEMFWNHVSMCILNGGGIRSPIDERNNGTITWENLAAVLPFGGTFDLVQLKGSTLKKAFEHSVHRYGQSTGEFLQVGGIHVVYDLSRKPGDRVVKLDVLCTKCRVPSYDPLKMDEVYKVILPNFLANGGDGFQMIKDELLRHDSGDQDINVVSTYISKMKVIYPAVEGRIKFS
The experiment can be described thus: ELISA binding of Fab variants to human CD73. The conditions noted are these: combinatorial Fab library clones, capture ELISA and direct ELISA.
Excerpt: as §1, §2, §3

B1: C1: combinatorial library clone of CD730010 GL9; VL SEQ ID NO: 60, VH SEQ ID NO: 74 (antibody, V domains shown)
VH: EVQLLESGGGLVQPGGSLRLSCAASGFTFSSYAYSWVRQAPGKGLEWVSAISGSGGSTYYADSVKGRFTISRDNSKNTLYLQMNSLRAEDTAVYYCARLGYSTIDKWGRGTLVTVSS
VL: QSVLTQPPSASGTPGQRVTISCSGSLSNIGRNEVNWYQQLPGTAPKLLIYLNNQRPSGVPDRFSGSKSGTSASLAISGLQSEDEADYYCATWDDSLKGWLFGGGTKLTVL
Regarding B1, in the experiment with muCD73, the “binding to murine CD73” value was “strong binding”. For the same molecule, the “binding to human CD73” value with huCD73 is on record as “strong binding”.
